Measurements taken from the supplement of paper PMC7125110.
± gives the standard error. Variants at the floor of the assay are shown more often than the library holds them.

B1: glmS ribozyme (parent)
chain: AUAAAAGCGCCAGAACUACAGAAAUGUAGUUGACGAGGAGGAGGUUUAUCGAAUUUUCGGCGGAUGCCUCCAAA

Assays:
Details in all cases: with glucosamine-6-phosphate
[1] = variants of: B1; experiment: self-cleavage kobs at 40 uM GlcN6P; higher = faster cleavage; RNA array
In short: (§1)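 E. coli RNA polymerase transcribed barcoded ribozyme variants in situ on sequenced MiSeq chips, which were tracked via a hybridised Cy3 probe at 37 °C. Tiles were imaged over ~14 h after glucosamine-6-phosphate (40 μM to 10 mM) in HEPES/KCl/Mg(OAc)2 buffer was flowed in. Normalised per-tile medians were fit to one- or two-exponential decays for kobs, and kcat and KM came from weighted Michaelis–Menten fits.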

[2] = variants of: B1; experiment: self-cleavage kobs at 640 uM GlcN6P; higher = faster cleavage; RNA array
In short: as §1

[3] = variants of: B1; experiment: self-cleavage kobs at 160 uM GlcN6P; higher = faster cleavage; RNA array
In short: as §1

[4] = variants of: B1; experiment: self-cleavage kobs at 2500 uM GlcN6P; higher = faster cleavage; RNA array
In short: as §1

[5] = variants of: B1; experiment: self-cleavage kobs at 10000 uM GlcN6P; higher = faster cleavage; RNA array
In short: as §1

Variant | self-cleavage kobs at 40 uM GlcN6P [1] [s⁻¹] | self-cleavage kobs at 640 uM GlcN6P [2] [s⁻¹] | self-cleavage kobs at 160 uM GlcN6P [3] [s⁻¹] | self-cleavage kobs at 2500 uM GlcN6P [4] [s⁻¹] | self-cleavage kobs at 10000 uM GlcN6P [5] [s⁻¹]
C11U U45G C68G | < 1e-05 | < 1e-05 | < 1e-05 | < 1e-05 | < 1e-05
A12C G13A C16A A42U C61U | < 1e-05 |  |  |  | < 1e-05
A12C G44U G63U | < 1e-05 |  |  |  | < 1e-05
C11U A12U U30G U31C G38C U54A | < 1e-05 |  |  |  | 
A12U G32U C50G | 7.78e-05 ± 3.4e-05 |  |  |  | 
C10U U30G | < 1e-05 |  |  |  | 
C10G G44A G51U C58U A64U | < 1e-05 | < 1e-05 |  | < 1e-05 | < 1e-05
A12U U30A C70U | 0.000748 ± 0.00013 |  |  |  | 0.0461 ± 0.017
C10U C16U A33G G37A U49G G62U U69G | < 1e-05 |  |  |  | 
C11G G43U | < 1e-05 | < 1e-05 | < 1e-05 | < 1e-05 | < 1e-05
C10A U65C | < 1e-05 |  |  |  | 
C10G G51C G59U | < 1e-05 |  |  |  | 
C11U A48U G51U | < 1e-05 |  |  |  | 
A12G G43A | < 1e-05 | < 1e-05 | < 1e-05 |  | 
A12C U31G | 8.48e-05 ± 1.8e-05 |  |  |  | 
C11U G29A U30G G32C G59C | < 1e-05 |  |  |  | 
A12G G44C C67G | < 1e-05 |  |  |  | 0.000225 ± 4.3e-05
C10G C71G | < 1e-05 |  |  |  | < 1e-05
G9U U65G | < 1e-05 | < 1e-05 | < 1e-05 | < 1e-05 | < 1e-05
C10U A36G | < 1e-05 | < 1e-05 |  |  | < 1e-05
C10U A36U | < 1e-05 |  |  |  | 
G9U C11U A42G | < 1e-05 | < 1e-05 |  | < 1e-05 | < 1e-05

Variant | self-cleavage kobs at 40 uM GlcN6P [1] [s⁻¹] | self-cleavage kobs at 640 uM GlcN6P [2] [s⁻¹] | self-cleavage kobs at 160 uM GlcN6P [3] [s⁻¹] | self-cleavage kobs at 2500 uM GlcN6P [4] [s⁻¹] | self-cleavage kobs at 10000 uM GlcN6P [5] [s⁻¹]
C11U G66U | < 1e-05 |  |  | 6.45e-05 ± 1e-05 | 
A12U G41A G44C U55G | < 1e-05 |  |  |  | 
C11G U56C | < 1e-05 |  |  |  | < 1e-05
C11G A53U | < 1e-05 |  |  |  | 
A12G U49A | < 1e-05 | < 1e-05 |  | < 1e-05 | < 1e-05
A12G U49C | < 1e-05 | < 1e-05 |  |  | < 1e-05
C11A G51U A52G U57A G66C C70A | 5.04e-05 ± 1.9e-05 |  |  |  | 5e-05 ± 1.4e-05
A12G A53G G60U | < 1e-05 |  |  | < 1e-05 | < 1e-05
C11U G35U | < 1e-05 |  |  | < 1e-05 | < 1e-05
C11A G32U C34G A36C C58A G60C | < 1e-05 |  |  |  | 
G9U C67G | < 1e-05 |  | < 1e-05 | < 1e-05 | 
C11U G38U | < 1e-05 | < 1e-05 | < 1e-05 | < 1e-05 | 
C10A A39U U49C | < 1e-05 |  |  |  | 
A12C U65A | 3.82e-05 ± 8.1e-06 | 0.000345 ± 6.5e-05 | 0.000134 ± 3.3e-05 | 0.000932 ± 0.00017 | 0.00173 ± 0.00015
C10G A53U | < 1e-05 | < 1e-05 | < 1e-05 |  | 
C11U A14G U31G G43U U69G | < 1e-05 | < 1e-05 |  |  | 
C11U U47A U56C G63A | < 1e-05 |  |  |  | 
C10A G44U U55A | < 1e-05 | < 1e-05 | < 1e-05 | < 1e-05 | < 1e-05
C10A C61A C67G | 4.33e-05 ± 1.9e-05 |  |  |  | 
A12C C16G A36U | < 1e-05 |  |  |  | 
C10U A12G G32U A36U C70U | < 1e-05 |  |  |  | 
A12U G38C | < 1e-05 |  | < 1e-05 |  | 

Variant | self-cleavage kobs at 40 uM GlcN6P [1] [s⁻¹] | self-cleavage kobs at 640 uM GlcN6P [2] [s⁻¹] | self-cleavage kobs at 160 uM GlcN6P [3] [s⁻¹] | self-cleavage kobs at 2500 uM GlcN6P [4] [s⁻¹] | self-cleavage kobs at 10000 uM GlcN6P [5] [s⁻¹]
C10G G35C G37A G40C G41C G66C | < 1e-05 |  |  |  | 
C10A G43A A48G | < 1e-05 | < 1e-05 |  | < 1e-05 | 
C11U C61U | < 1e-05 | < 1e-05 |  |  | < 1e-05
C11A A33G A42U C50G | < 1e-05 |  |  |  | < 1e-05
C11U G44A G59A C61G G66U | < 1e-05 | < 1e-05 |  |  | < 1e-05
G9U U46A C67G | < 1e-05 | < 1e-05 |  | < 1e-05 | 
A12U G41U C61U | < 1e-05 | < 1e-05 | < 1e-05 | < 1e-05 | < 1e-05
A12U U49A | < 1e-05 |  | < 1e-05 |  | 
A12C A42C | < 1e-05 | < 1e-05 |  |  | 
G9U G13U A36U | < 1e-05 |  |  |  | 
C11A A14G G29A G35A A53G | < 1e-05 |  |  |  | 
C10U A15C | < 1e-05 |  | < 1e-05 |  | 
C11G U46G | < 1e-05 | < 1e-05 | < 1e-05 | < 1e-05 | 
G13A A14U U31C | 7.34e-05 ± 1.8e-05 |  |  |  | 
A12C U45C | 3e-05 ± 1.2e-05 | 0.000289 ± 7.9e-05 | 5.84e-05 ± 2.1e-05 |  | 
C11G G41C C50U | < 1e-05 |  |  |  | 
C10U G66A | < 1e-05 |  | < 1e-05 |  | 
C11U A33U G35U A39U G60A | < 1e-05 |  |  |  | 
C10A A33C | < 1e-05 | < 1e-05 | < 1e-05 | < 1e-05 | < 1e-05
A12G U56C C67G | < 1e-05 | < 1e-05 |  | < 1e-05 | 
A12G G32C G37U C71G | < 1e-05 |  |  |  | 
C10G U69C | < 1e-05 | < 1e-05 |  |  | < 1e-05

Variant | self-cleavage kobs at 40 uM GlcN6P [1] [s⁻¹] | self-cleavage kobs at 640 uM GlcN6P [2] [s⁻¹] | self-cleavage kobs at 160 uM GlcN6P [3] [s⁻¹] | self-cleavage kobs at 2500 uM GlcN6P [4] [s⁻¹] | self-cleavage kobs at 10000 uM GlcN6P [5] [s⁻¹]
C11G C58A | < 1e-05 |  | < 1e-05 |  | < 1e-05
C10U A64G | < 1e-05 |  |  | 3.75e-05 ± 5.1e-06 | 3.21e-05 ± 5.8e-06
C10G A48C | < 1e-05 | < 1e-05 |  | < 1e-05 | < 1e-05
C11G A64U C67A | < 1e-05 |  |  |  | < 1e-05
C11A G40U A53U G59U U69G | < 1e-05 |  |  |  | 
C10U C50U | < 1e-05 |  |  |  | < 1e-05
C10G C16U U49C | < 1e-05 | < 1e-05 |  |  | 
A12C C34A | < 1e-05 | < 1e-05 | < 1e-05 |  | 
C11U A15C G62C | < 1e-05 |  |  |  | 
C10G U30G | < 1e-05 | < 1e-05 | < 1e-05 |  | 
A12G G38A G66U | < 1e-05 | < 1e-05 | < 1e-05 |  | < 1e-05
A12U G32C A39G U49G C50A | < 1e-05 |  |  |  | < 1e-05
C10U A42U G43A | < 1e-05 |  |  |  | 
C11U A42C U56A C68A | < 1e-05 |  |  |  | < 1e-05
C10U U46C U56C | < 1e-05 | < 1e-05 | < 1e-05 | < 1e-05 | 
C11G U55C | < 1e-05 | < 1e-05 | < 1e-05 |  | 
C10A A36C G62C | < 1e-05 |  |  |  | 
A12G C61G | < 1e-05 |  |  |  | < 1e-05
C10G G51U | < 1e-05 |  | < 1e-05 | < 1e-05 | < 1e-05
G9U A14G | < 1e-05 |  |  | < 1e-05 | < 1e-05
C10U G40U U49A | < 1e-05 |  |  |  | 
C11G U56C C71U | < 1e-05 |  |  |  | < 1e-05

Variant | self-cleavage kobs at 40 uM GlcN6P [1] [s⁻¹] | self-cleavage kobs at 640 uM GlcN6P [2] [s⁻¹] | self-cleavage kobs at 160 uM GlcN6P [3] [s⁻¹] | self-cleavage kobs at 2500 uM GlcN6P [4] [s⁻¹] | self-cleavage kobs at 10000 uM GlcN6P [5] [s⁻¹]
C10A C11U A33U | < 1e-05 |  |  |  | < 1e-05
G13A G32U C71G | < 1e-05 |  |  |  | 
C11U G32U U49A C71A | < 1e-05 |  |  |  | 
A12U G13C G35U A48U | < 1e-05 |  |  |  | 
A12C A48C U57C G59C | < 1e-05 | < 1e-05 |  | < 1e-05 | 
A12C G13A A14G A15U C16A U17C A18U C19A A20C A36G | < 1e-05 |  |  |  | 
G9U C58U G66A | < 1e-05 |  |  |  | 
A12C G59C | < 1e-05 |  |  |  | 
A12C G59A | < 1e-05 |  | < 1e-05 |  | 
A12U U30G U56G | 0.000609 ± 0.00013 |  |  |  | 0.0339 ± 0.0098
A12G C34G G41C A53G | < 1e-05 |  |  |  | 
C11U U56A | 3.72e-05 ± 1e-05 | 0.000294 ± 4.5e-05 | 0.000103 ± 1.4e-05 | 0.000621 ± 7.2e-05 | 0.00125 ± 0.00016
G9U G13U A64C C71A | < 1e-05 |  |  |  | < 1e-05
C11A U45C | < 1e-05 | < 1e-05 |  |  | 
A12C A14C G41U G60U G66U | < 1e-05 |  | < 1e-05 | < 1e-05 | 
C11U C34U G35U U49C G60U | < 1e-05 | < 1e-05 |  |  | 
C11U G59U G60C C67U | < 1e-05 |  |  | < 1e-05 | < 1e-05
G9U G35A | < 1e-05 | < 1e-05 | < 1e-05 | < 1e-05 | < 1e-05
C10U A33U U54C | < 1e-05 |  |  |  | 
C10U G44A C67A | < 1e-05 | < 1e-05 |  | < 1e-05 | 
